In the supplement of paper PMC3334620:
In all, about 33,000 sequences were measured (“E-score (-0.5 to 0.5)”: median about -0.013, highest 2% from about 0.3 on). This is one part of the list.

target: T1, Msn1 (UniProt P22148); assay: PBM E-score (8-mer binding enrichment) (E-score (-0.5 to 0.5)); higher = stronger / more preferred TF binding; most listed sequences are background and not binding sites; details: protein concentration: 200 nM; construct: GST-full length
T1 sequence: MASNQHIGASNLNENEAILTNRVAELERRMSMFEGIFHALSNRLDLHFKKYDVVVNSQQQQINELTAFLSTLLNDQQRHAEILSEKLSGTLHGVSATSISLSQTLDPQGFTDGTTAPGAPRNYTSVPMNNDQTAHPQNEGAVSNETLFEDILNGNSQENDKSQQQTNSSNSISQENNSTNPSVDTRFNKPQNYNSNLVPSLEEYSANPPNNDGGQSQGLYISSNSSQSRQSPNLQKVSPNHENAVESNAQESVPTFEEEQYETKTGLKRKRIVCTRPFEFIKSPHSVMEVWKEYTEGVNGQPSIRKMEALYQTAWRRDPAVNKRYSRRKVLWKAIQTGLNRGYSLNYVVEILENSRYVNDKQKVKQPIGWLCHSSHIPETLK
Procedure, shortened: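 Yeast transcription factors carrying a GST tag, as full-length proteins or DNA-binding domains, were produced by PURExpress in vitro transcription/translation. About 100-200 nM protein was applied to universal all-10-mer Agilent arrays, double-stranded by primer extension on fresh or once-stripped slides. Bound protein was detected with fluorescent anti-GST, and scans were normalised with masliner. The Universal PBM Analysis Suite gave each ungapped eight-base word, pooled with its reverse complement, an E-score, a modified Wilcoxon-Mann-Whitney statistic.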

Row | Sequence | PBM E-score
1 | GCACAGAC | 0.153
2 | CGAAGGTA | 0.0151
3 | ATAAAGGA | -0.00327
4 | CTCGATAA | 0.134
5 | AAAAGAAC | 0.0662
6 | AGACACAT | 0.197
7 | CCCCGTCG | -0.299
8 | ACGGCATG | 0.0326
9 | AGACACAG | 0.131
10 | CACCACGA | -0.00247
11 | CAGTATGA | 0.0362
12 | CGGTATGC | -0.0412
13 | AAAATAAT | 0.174
14 | GACCTGTA | 0.0628
15 | CCAATAAA | 0.0626
16 | AGTCCGGA | 0.267
17 | AGTAGCGA | 0.0595
18 | GGAAGCTA | 0.106
19 | CTGGTTGA | -0.207
20 | GCGGACAA | 0.44
21 | AGTATGCA | -0.0435
22 | AAGAGTTG | 0.0512
23 | CACTCGAA | 0.0074
24 | AGGGAGGG | -0.283
25 | GGCTATCA | -0.0415

Row | Sequence | PBM E-score
26 | AGTAGTGA | 0.121
27 | AGAGGGAT | -0.274
28 | CTCTACCA | -0.116
29 | GTCCGGAC | 0.406
30 | CACCCGGC | -0.407
31 | CTCGCCAG | -0.284
32 | AGAATGAC | 0.159
33 | ACCTCAGG | -0.129
34 | GTTCCAAC | -0.0185
35 | ACTCGCTG | -0.0996
36 | ACCAATCG | 0.0921
37 | CAGAGGCG | -0.187
38 | TAGTTACA | -0.173
39 | AAGTGAAT | 0.146
40 | CAGTCTTC | -0.095
41 | AACTAGAC | 0.222
42 | CGTATACG | -0.133
43 | AGCTCGAG | 0.0239
44 | GAGCGCAC | -0.0759
45 | GTCATATA | 0.197
46 | ATCAGGCC | -0.0335
47 | GAATTTCC | 0.227
48 | TGCCGCCA | -0.00848
49 | GAAGGAAC | -0.105
50 | AATCAGAT | 0.0763

Row | Sequence | PBM E-score
51 | AAGTCGGA | 0.158
52 | CTCTCGAA | -0.0563
53 | GTGAACTA | 0.165
54 | GGATATGA | -0.00723
55 | CGGAAGAG | -0.169
56 | ACCTACGG | -0.349
57 | ACAAACTC | 0.101
58 | AAAAATAC | -0.0146
59 | CCATCAGC | -0.0912
60 | CCCAATCC | -0.177
61 | GGAGACAA | 0.32
62 | CCAGGTTC | -0.278
63 | AATCCTAT | 0.185
64 | GCGACCCA | -0.164
65 | CTTTCCTC | -0.15
66 | GCTGTGCA | -0.219
67 | CCCCCCGC | -0.378
68 | GGCAGGCC | -0.134
69 | GGCCAGCA | -0.11
70 | CAAAGGTG | -0.0702
71 | ATGCAGCG | -0.15
72 | AAAACGAC | 0.154
73 | AGAATAGG | -0.0251
74 | AGAGGATA | -0.0113
75 | CCTGCCAG | -0.155

Row | Sequence | PBM E-score
76 | ACGTTCCG | 0.00237
77 | GTTCCGGA | 0.162
78 | AGTGGTAC | -0.0512
79 | ATGATCCG | -0.00539
80 | CCCCATCA | -0.0166
81 | CAGCTATC | -0.0627
82 | ATCTAATA | 0.0267
83 | CGTAGATC | -0.0204
84 | ACTAGACA | 0.274
85 | AGCTTCGC | -0.199
86 | TATTGTGA | 0.0467
87 | AAAGACTA | -0.0897
88 | CGTCCTAG | 0.13
89 | CAAGGGAG | -0.161
90 | GCGGGAGC | -0.244
91 | AAGCCGGT | -0.0922
92 | ATCCCCAT | -0.131
93 | ATGTATGC | 0.0615
94 | CCGTACGC | -0.0211
95 | CACGTGTA | -0.0987
96 | CCACATGG | -0.212
97 | GACATCTA | 0.404
98 | AGTACGAC | 0.0524
99 | AGGAGAAG | -0.265
100 | AGCCATTC | -0.0296

Row | Sequence | PBM E-score
101 | CTTGTCAA | 0.162
102 | AATAATAT | 0.33
103 | CTAGGGAC | 0.134
104 | GTGTCTCA | 0.286
105 | CACAGAAC | -0.115
106 | CAGCCATA | -0.0359
107 | AAGTCTGA | 0.016
108 | CGAGGCCG | -0.0921
109 | GCAGTAGC | -0.289
110 | AACGAATA | -0.0354
111 | CACCCTCG | -0.0601
112 | ACGGGGAT | -0.076
113 | CTTGGGTC | -0.123
114 | AGGCAATA | -0.0129
115 | TTGGAAAA | 0.0431
116 | GAGGTCCA | -0.0849
117 | CAAACTGG | -0.014
118 | ACGCGAGC | 0.06
119 | AGCTGTTG | 0.152
120 | TCGAGTAA | 0.157
121 | ATGAGAAG | -0.0382
122 | AGGCGCCT | -0.0369
123 | CAGACCGC | -0.0442
124 | ACTATCAG | 0.0656
125 | AATCAGTC | 0.126

Row | Sequence | PBM E-score
126 | AGATCTCG | 0.0215
127 | CCAAAAAC | 0.0933
128 | CACATTCA | -0.0795
129 | ACCGGGCG | -0.163
130 | CAATTGGA | 0.175
131 | ATGGTTTC | 0.153
132 | ATGCTAGC | 0.063
133 | AGTACTGA | 0.129
134 | CTTATAGA | -0.114
135 | GACAATCC | 0.355
136 | TAAGTCAA | 0.098
137 | AAGCAAGA | -0.0395
138 | ACCATTGA | -0.0256
139 | ACCACGCC | -0.0524
140 | GCCTACGA | 0.0407
141 | TCGACCGA | 0.0492
142 | GTATCGTA | 0.145
143 | CAAGTCCA | 0.115
144 | CGAATAAG | -0.0509
145 | CAACACGA | -0.00668
146 | AACGCAAG | 0.0358
147 | CAACCCCC | -0.313
148 | CGGCCCGA | -0.0194
149 | CCGTTTTA | 0.0515
150 | CCAATTGG | 0.168

Row | Sequence | PBM E-score
151 | GCTGCTTA | -0.144
152 | GACTAACC | -0.0912
153 | ACATAGTG | 0.0558
154 | ACGAAACG | 0.0382
155 | TAGATAAA | 0.117
156 | CACTCAAC | -0.0866
157 | GGTGGATA | 0.0155
158 | GACAAGTA | 0.369
159 | ACAAACCG | 0.168
160 | CGCTCGAA | -0.0779
161 | AGGTCCTG | 0.0441
162 | AGAGCTTC | -0.16
163 | AAACCACA | 0.0149
164 | ATCTGAAA | 0.17
165 | AGACGTCC | 0.199
166 | CCCTGTAG | -0.146
167 | GATACTGC | 0.143
168 | CACCGGGG | -0.36
169 | AGCGTGCA | -0.125
170 | ATTCACTG | -0.093
171 | CTAATGGC | -0.0257
172 | CCCACAAC | -0.0623
